# According to PubChem BioAssay AID1465 (SRMLSC, 2008):
# In all, about 220,000 compounds went through this assay and about 160 (0.073%) were called active. This list was built around the results that the source calls inconclusive (neither active nor inactive); the mix of calls is not that of the screen.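 Rule for the calls: active = fold induction of absorbance versus untreated yeast above a set limit, then at least 30% activation at any dose in follow-up; inconclusive = repeats straddling the limit, or above it without dose testing; inactive = fold induction below the set limit.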
# Assay: enhancers of respiration in Yfh1-depleted yeast, dose response, Friedreich's ataxia, plus single-dose screen (AID 1465)
# Details: S. cerevisiae Yfh1-off respiration, WST-1 reduction, 72 h; at 50 µM; hits give high values
row,SMILES,fold induction
1,O=C(Nc1nn[nH]n1)c1cccc(Oc2ccccc2)c1,inconclusive: 1.36
2,Cc1ccccc1C(=O)Nc1cccc(NC(=S)NC(=O)c2cccs2)c1,inconclusive: 1.25
3,COc1ccc(CN2C(=O)[C@H]3Cc4c([nH]c5ccccc45)C(C)(C)N3C2=O)cc1,inactive: 0.81
4,CCc1ccc(NC(=O)NCC2CCN(c3ccc(OC)cc3)C2)cc1 (stereo not drawn),inconclusive: 1.35
5,COc1ccc(C2=NN(c3nc(C)cc(C)n3)C(=O)C2)cc1,inactive: 1.09
6,Cc1ccc(C(=O)c2c(C)oc3c2C(=O)C(=O)c2ccccc2-3)cc1,inactive: 1.18
7,CCc1nnc(N/N=C/c2c(C)[nH]c3ccccc23)n1N,inconclusive: 1.33
8,Cc1oc2c(c1C(=O)O)C(=O)c1ccccc1C2=O,inactive: 1.01
9,FC(F)(F)c1cccc(Oc2nc(-c3ccccc3)nnc2C(F)(F)F)c1,inconclusive: 1.43
10,CCOC(=O)N1CCN(C(c2cccnc2)c2ccc3cccnc3c2O)CC1 (stereo not drawn),inconclusive: 1.1
11,S=c1[nH]nc(-c2cc(-c3ccccc3)n[nH]2)n1/N=C/C=C/c1ccccc1,inconclusive: 1.34
12,O=C(O)CCC(=O)/C=C/c1ccccc1,inconclusive: 1.33
13,CC(C)(C)C(=O)N1CCN(c2ccc([N+](=O)[O-])c(NCC3CCCO3)c2)CC1 (stereo not drawn),inconclusive: 1.47
14,COc1cc(N=Nc2cccc(S(N)(=O)=O)c2)c2ccccc2c1N,inconclusive: 1.46
15,CCCC1(C)NC(=O)c2ccccc2O1 (stereo not drawn),inconclusive: 1.35
16,Cc1cccc(-n2c(O)c(C=Nc3ccc4c(c3)OCO4)c3ccccc3c2=O)n1,inconclusive: 1.37
17,CCN(CC)c1ccc(/C=N/Nc2nc3ccccc3[nH]2)c(O)c1,inconclusive: 1.8
18,Cc1nc2ccc(NC(=O)COc3ccccc3[N+](=O)[O-])cc2s1,inactive: 0.97
19,O=[N+]([O-])c1ccc(N/N=C/c2cn(-c3ccccc3)nc2-c2ccccc2)cc1,inconclusive: 1.14
20,COc1ccc(-n2c(N)c(C(=O)NCc3ccco3)sc2=S)cc1,inconclusive: 1.12
21,CCOc1ccc2nc3ccc4[nH]onc4c3c2c1,inactive: 0.93
22,O=C(NNC1=C(C(=O)C(F)(F)F)CCC1)c1ccccc1O,inactive: 0.82
23,C=CCOC(=O)C1=C(C)NC(SCC(=O)Nc2nccs2)=C(C#N)C1c1ccc(Cl)cc1 (stereo not drawn),inconclusive: 1.6
24,CC(=O)CCc1oc2ccc(NC(C)=O)cc2c1-c1ccc(C)o1,inconclusive: 1.77

row,SMILES,fold induction
1,O=C(CCN1CCOCC1)c1ccc(Br)cc1,inconclusive: 1.34
2,CCOC(=O)N1CCN(C(=O)CSCC(=O)Nc2nc(-c3ccc(-c4ccccc4)cc3)cs2)CC1,inconclusive: 1.34
3,Cc1ccc(/C=N/NC(=O)CN2CCN(Cc3ccccc3Cl)CC2)o1,inactive: 0.97
4,O=C1/C(=C/c2cccs2)N=C(c2cccs2)N1Nc1ccccc1,inconclusive: 1.23
5,COc1cccc(NC2SC(=O)N(c3ccccc3)C2=O)c1 (stereo not drawn),inconclusive: 1.45
6,CCCCNc1ccc(C(=O)O)cc1,inconclusive: 1.33
7,O=C(NC(=S)Nc1ccccc1)c1cc(-c2ccccc2)nc2ccccc12,inconclusive: 1.24
8,O=C(C1CCCO1)N1CCN(C(=S)Nc2ccccc2Cl)CC1 (stereo not drawn),inactive: 0.94
9,CCOc1ccc(C(=O)N/N=C(\c2ccccc2)c2ccccn2)cc1,inconclusive: 1.14
10,O=C(Cn1cnc2cc([N+](=O)[O-])ccc2c1=O)Nc1ccc2c(c1)OCO2,inactive: 0.88
11,COc1cccc(-c2nc(NCc3ccco3)c3ccccc3n2)c1O,inconclusive: 1.08
12,COc1ccc(N2C(=O)/C(=C\c3ccco3)N=C2SCC(=O)N(C(C)C)C(C)C)cc1Cl,inconclusive: 1.33
13,CCOC(=O)c1ccc(NC(=S)Nc2ccccn2)cc1,inconclusive: 1.25
14,Cc1ccc(C(=O)c2sc3nsc(C)c3c2N)cc1,inconclusive: 1.33
15,Cn1cccc1/C=C1\SC(=S)N(NC(=O)c2ccccc2)C1=O,inactive: 1.81
16,CCOC(=O)c1cnc2c(OC)cccc2c1N1CCN(c2ccc(OC)cc2)CC1,inconclusive: 1.21
17,NS(=O)(=O)c1ccc(N=Nc2c[nH]c(=O)c(O)c2)cc1,inconclusive: 1.75
18,COc1ccc2c(C(=O)CCl)c[nH]c2c1,inconclusive: 1.52
19,O=C(O)c1ccnc(SCC(=O)c2ccccc2)c1,inconclusive: 1.33
20,O=C(COc1ccccc1)Nc1nc(-c2ccc(S(=O)(=O)N3CCOCC3)cc2)cs1,inconclusive: 1.13
21,COc1ccc(CCn2c(C)cc(C(=O)CCl)c2C)cc1OC,inconclusive: 1.35
22,O=C(c1ccc(Cl)cc1)C(Cn1cncn1)C(Sc1ccccc1)c1ccccc1 (stereo not drawn),inconclusive: 1.2
23,COc1cc([N+](=O)[O-])cc(/C=N/NC(=O)c2cncc(Br)c2)c1O,inconclusive: 1.34
24,Cc1cc2cc(C(c3nnnn3Cc3ccco3)N3CCCCC3)c(=O)[nH]c2cc1C (stereo not drawn),inactive: 0.99

row,SMILES,fold induction
1,CCC(=O)N1COC[C@@H]1Cc1ccccc1,inactive: 1.04
2,CC[n+]1c(/C=C(\C)SC)sc2ccccc21,inactive: 0.92
3,CCC(=O)NC(c1cccs1)c1ccc2cccnc2c1O (stereo not drawn),inactive: 0.88
4,COc1ccc(Nc2nnc(SCC(=O)Nc3cc(C)on3)s2)cc1,inconclusive: 1.15
5,CC(=O)C1=C(c2ccc(Br)cc2)C(=O)c2ccccc2C1=O,inactive: 0.86
6,CCN(CC)c1ccc2cc(-c3nnc(-c4ccncc4)o3)c(=O)oc2c1,inconclusive: 1.61
7,CCCCOc1ccc(-c2cc(C(=O)NNC(=S)NCC)c3ccccc3n2)cc1,inconclusive: 1.41
8,NC(=S)n1[nH]c(-c2ccc([N+](=O)[O-])cc2)c(N=Nc2ccc(Cl)cc2)c1=O,inactive: 1.58
9,O=C(Nc1cccc(S(=O)(=O)Nc2ccccc2Cl)c1)c1ccc(N2CCCC2)c([N+](=O)[O-])c1,inconclusive: 1.33
10,Cc1sc2nc(SC3CCOC3=O)n(Cc3ccccc3)c(=O)c2c1C (stereo not drawn),inactive: 0.94
11,O=C(Nc1nnc(COc2ccc(Cl)cc2)s1)c1cccs1,inconclusive: 1.19
12,O=C(NC(c1ccc(Cl)cc1)c1cc(Cl)c2cccnc2c1O)c1cccnc1 (stereo not drawn),inactive: 1.09
13,CC[n+]1c(/C=C2\C=C(C)CC(C)(C)C2)sc2ccccc21,inactive: 0.86
14,COc1ccc2nc3oc(C(=O)N4CCN(c5ccccc5F)CC4)cc3cc2c1,inconclusive: 1.16
15,NC(=O)C1CCN(CCS(=O)(=O)c2ccc(Cl)cc2)CC1,inconclusive: 1.35
16,OCC#Cc1ncc(C(F)(F)F)cc1Cl,inconclusive: 1.35
17,O=C(COC(=O)c1ccncc1)c1ccc(Cl)c(Cl)c1,inconclusive: 1.33
18,COc1ccccc1NC(=S)NCC1CCC(CNC(=S)Nc2ccccc2OC)CC1 (stereo not drawn),inconclusive: 1.33
19,Oc1ccc(CN2CCN(Cc3ccccc3)CC2)c2cccnc12,inactive: 1.36
20,COc1ccc2cc3cc(C(=O)Nc4ccccc4N4CCN(C)CC4)oc3nc2c1,inconclusive: 1.23
21,S=C(c1cn(CCOc2ccccc2)c2ccccc12)N1CCCC1,inconclusive: 1.21
22,Nc1cc(-c2ccc(Br)cc2)[nH]n1,inconclusive: 1.33
23,CCN1C(=O)/C(=C2\SC(=S)N(CCCOC)C2=O)c2ccccc21,inconclusive: 1.34
24,COc1ccc(NC(=S)NCCC(c2ccccc2)c2ccccc2)c(OC)c1,inconclusive: 1.13

row,SMILES,fold induction
1,COC(=O)c1ccc(N)cc1O,inactive: 1.05
2,Cc1c(Cl)cccc1NC(=S)NCc1ccc(Cl)cc1,inconclusive: 1.32
3,Cc1occc1-c1nnc(SCC(=O)N2CCOCC2)n1CCc1ccccc1,inconclusive: 1.13
4,COc1ccc(C(NC(C)=O)c2cc(Cl)c3cccnc3c2O)cc1OC (stereo not drawn),inconclusive: 1.33
5,C=CCNC(=O)CC1C(=O)NCCN1Cc1ccc(-c2ccccc2)cc1 (stereo not drawn),inconclusive: 1.34
6,COc1ccc(C(NC(=O)c2cccnc2)c2cc(Cl)c3cccnc3c2O)cc1OC (stereo not drawn),inactive: 0.98
7,COC(=O)c1cc(NC(=O)c2c(Cl)nc3sccn23)cc(C(=O)OC)c1,inconclusive: 1.19
8,COc1cc(NC(=S)NCCC(c2ccccc2)c2ccccc2)cc(OC)c1,inconclusive: 1.33
9,Cc1ccc(NC(=O)/C(C#N)=C/c2cn(CC(=O)NCc3ccco3)c3ccccc23)cc1C,inconclusive: 1.35
10,O=c1cc2oc3cc(O)c(O)cc3c(-c3ccccc3O)c-2cc1O,inconclusive: 1.41
11,CCn1c(NN)nc2sc3c(c2c1=O)CCC3,inconclusive: 1.38
12,COc1ccccc1N(CN1C(=O)c2ccccc2C1=O)C(=O)c1cccc(C)c1,inactive: 0.82
13,CCN1/C(=C/c2ccc3cc(C)ccc3[n+]2CC)Sc2ccccc21,inconclusive: 1.41
14,CCOC(=O)/C=C/C(=O)OCC(=O)NCc1ccccc1,inconclusive: 1.35
15,CN1C(=O)C(O)(CC(=O)c2ccccc2O)c2cc(Br)ccc21 (stereo not drawn),inconclusive: 1.58
16,S=c1[nH]nc(NCCc2ccccc2)s1,inconclusive: 1.33
17,Clc1ccc(CSc2ccc(-c3ccccn3)nn2)cc1,inactive: 0.99
18,Cc1[nH]nc(-c2ccc(OCc3cnn(-c4ccccc4)c3)cc2O)c1Oc1ccc(Cl)cc1,inconclusive: 1.2
19,O=C1C=C(Nc2ccccc2C(=O)O)c2ccccc2C1=O,inconclusive: 1.5
20,C=CCOc1ccc(CNc2ccc3[nH]c(=O)[nH]c3c2)cc1,inconclusive: 1.33
21,Cc1cc(O)c(-c2cc(O)c(C)cc2O)cc1O,inconclusive: 1.43
